The campaign covered roughly 310,000 compounds. About 2,200 (0.71%) showed an effect of 50% or more. The effect is printed as a negative number. Some of the results follow.

The target in this assay is human ether-à-go-go-related gene (hERG) potassium channel (human, UniProt Q12809). Kind of assay: primary screen, population patch clamp on CHO cells stably expressing hERG.
Chain of human ether-à-go-go-related gene (hERG) potassium channel (Q12809 whole entry, looked up): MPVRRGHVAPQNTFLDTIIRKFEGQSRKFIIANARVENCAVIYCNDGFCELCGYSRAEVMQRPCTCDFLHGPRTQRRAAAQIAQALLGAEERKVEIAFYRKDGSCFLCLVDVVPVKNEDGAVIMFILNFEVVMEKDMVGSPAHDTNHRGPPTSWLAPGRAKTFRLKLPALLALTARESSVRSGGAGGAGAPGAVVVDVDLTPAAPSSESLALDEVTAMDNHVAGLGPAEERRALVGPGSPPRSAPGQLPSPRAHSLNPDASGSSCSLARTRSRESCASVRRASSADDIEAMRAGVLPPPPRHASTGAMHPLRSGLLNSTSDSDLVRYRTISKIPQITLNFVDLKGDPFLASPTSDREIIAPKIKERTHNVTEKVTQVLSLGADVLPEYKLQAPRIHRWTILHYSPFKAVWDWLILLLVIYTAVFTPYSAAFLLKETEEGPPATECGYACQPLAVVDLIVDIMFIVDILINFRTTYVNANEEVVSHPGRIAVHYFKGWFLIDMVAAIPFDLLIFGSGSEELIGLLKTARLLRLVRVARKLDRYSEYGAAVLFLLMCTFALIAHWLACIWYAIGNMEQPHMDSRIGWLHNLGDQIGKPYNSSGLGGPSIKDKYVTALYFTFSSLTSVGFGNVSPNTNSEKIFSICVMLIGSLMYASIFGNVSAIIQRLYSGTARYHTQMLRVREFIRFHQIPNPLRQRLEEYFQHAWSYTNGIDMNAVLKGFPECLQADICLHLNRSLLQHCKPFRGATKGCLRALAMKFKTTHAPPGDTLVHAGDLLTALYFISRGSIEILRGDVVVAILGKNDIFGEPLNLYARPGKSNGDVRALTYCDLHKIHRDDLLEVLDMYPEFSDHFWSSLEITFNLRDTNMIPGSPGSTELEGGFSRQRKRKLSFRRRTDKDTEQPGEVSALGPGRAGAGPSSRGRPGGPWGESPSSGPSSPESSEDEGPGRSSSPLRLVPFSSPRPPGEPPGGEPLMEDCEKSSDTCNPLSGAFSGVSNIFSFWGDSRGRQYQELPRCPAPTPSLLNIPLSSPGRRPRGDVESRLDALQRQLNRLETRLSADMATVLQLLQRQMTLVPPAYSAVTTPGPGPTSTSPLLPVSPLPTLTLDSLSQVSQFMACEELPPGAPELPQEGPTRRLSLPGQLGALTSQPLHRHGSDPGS
`Clc1ccc(-c2nn3c(C4COc5ccccc5O4)nnc3s2)cc1` (centres unmarked): the “hERG current change (%, negative = inhibition) at 1uM” value is recorded as 13.3%.

For the molecule `O=C(NCCCN1CCCCCC1)C1CC(=O)N(CCc2ccccc2)C1` (centres unmarked), the “hERG current change (%, negative = inhibition) at 1uM” value turned out to be 8.62%.

In the case of `CCC1(CC)C(=O)NC(=O)NC1=NCCc1ccc(O)cc1`, the “hERG current change (%, negative = inhibition) at 1uM” value is listed as 5.05%.

On to `COc1ccccc1NC(=O)/C=C1\NC(=O)CS1`, for which the “hERG current change (%, negative = inhibition) at 1uM” value was determined as 6.78%.

Regarding `O/N=C\c1cnc(N2CCN(c3ccccc3)CC2)s1`, the “hERG current change (%, negative = inhibition) at 1uM” value came out at 11.5%.

In the case of `O=C1CC(C(=O)Nc2ccc(Br)cc2)S/C(=N\N=C\c2ccco2)N1` (centres unmarked), the “hERG current change (%, negative = inhibition) at 1uM” value is on record as 11.3%.

Take `O=c1[nH]c(=S)n(Cc2ccc(F)cc2)c(O)c1/C=N/N1CCCCC1`: the “hERG current change (%, negative = inhibition) at 1uM” value is given as 8.67%.

For the molecule `Nc1cc(OC(=O)c2ccco2)nn1S(=O)(=O)c1ccc(F)cc1`, the “hERG current change (%, negative = inhibition) at 1uM” value was found to be 13.4%.

Consider `COc1ccc2c(c1)C=C([C@@H]1C[C@H]3CN(c4ccccc4)C(=O)[C@]34CCCN14)CO2`, for which the “hERG current change (%, negative = inhibition) at 1uM” value is reported as -4.08%.

`CC(=O)Nc1ccc(NC(=O)C(NS(=O)(=O)c2ccc3c(c2)OCCO3)C(C)C)cc1` (centres unmarked): the “hERG current change (%, negative = inhibition) at 1uM” value is 4.18%.

As for `CC(NC(=O)/C(=C/c1cccc([N+](=O)[O-])c1)NC(=O)c1ccco1)C(=O)O` (centres unmarked), the “hERG current change (%, negative = inhibition) at 1uM” value is 2.91%.

`COc1cc2c(cc1OC)C(C)N(C(=O)c1cc3c(s1)-c1c(C)cccc1OC3)CC2` (centres unmarked): the “hERG current change (%, negative = inhibition) at 1uM” value came out at 6.14%.

Regarding `CN1CC=C(/C=C/c2ccc(-c3ccccc3)cc2)CC1.Cl`, the “hERG current change (%, negative = inhibition) at 1uM” value is reported as -1.22%.

Turning to `Cn1nnc(NC(=S)NC(=O)Cc2ccccc2)n1`, the “hERG current change (%, negative = inhibition) at 1uM” value stood at 2.29%.

Turning to `O=c1c2c(-c3ccccc3)csc2ncn1/N=C/c1cccc([N+](=O)[O-])c1O`, the “hERG current change (%, negative = inhibition) at 1uM” value was found to be 17.7%.

As to `C=CCN(c1cccc(C(F)(F)F)c1)S(=O)(=O)c1cccc(C(=O)OCC(=O)Nc2ccccc2)c1`, the “hERG current change (%, negative = inhibition) at 1uM” value is -4.43%.

Take `Cc1nn(C)cc1C(=O)NNC(=S)Nc1ccccc1`: the “hERG current change (%, negative = inhibition) at 1uM” value is reported as 10.7%.

Consider `CCC1(CC)Cc2ccccc2-c2nc(CCl)[nH]c(=O)c21`, for which the “hERG current change (%, negative = inhibition) at 1uM” value came to 13.8%.

Take `O=C(CSc1ncccc1C(=O)O)c1ccccc1F`: the “hERG current change (%, negative = inhibition) at 1uM” value was 2.97%.

For the molecule `COc1ccccc1OCC(=O)Nc1ccccc1C(=O)Nc1cccc(C(=O)O)c1`, the “hERG current change (%, negative = inhibition) at 1uM” value is 15.1%.

`C[C@]12CC[C@H](OS(=O)(=O)O)CC1=CC[C@@H]1[C@@H]2CC[C@]2(C)C(=O)CC[C@@H]12.O.[Na]`: the “hERG current change (%, negative = inhibition) at 1uM” value came out at 5.88%.

As for `CN(C)c1nc(-c2ccccc2)[n+](C)s1.[O-][Cl+3]([O-])([O-])[O-]`, the “hERG current change (%, negative = inhibition) at 1uM” value is reported as 4.46%.

As for `CCOc1ccc(/C=C(\C)C(=O)c2c(C)cc(C)[nH]c2=O)cc1`, the “hERG current change (%, negative = inhibition) at 1uM” value was 8.72%.

The record behind these values is article PMC4336329 (PLoS ONE, 2015).
